Source: article PMC12136788
Residue numbers refer to the chain shown, from its start. This is one part of the list.

T1: UNK ZnF1-3 (human, UniProt Q9C0B0 31-174)
T1 sequence: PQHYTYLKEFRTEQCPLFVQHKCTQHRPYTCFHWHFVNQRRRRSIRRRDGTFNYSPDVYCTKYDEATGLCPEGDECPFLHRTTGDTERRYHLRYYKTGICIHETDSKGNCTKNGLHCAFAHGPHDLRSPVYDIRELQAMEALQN

B1: chr9:109937708:109937709:+_ENSMUSG00000032479_ENSMUST00000165876|mus_mus|FALSE|FALSE (ssRNA)
RNA: GGGAGUUCUACAGUCCGACGAUCCGGAGACAUGUCCUUGACUGAGGUUACCUCUUCUUCUGAAAGUGGAGUCACAUUGUUAAACUCAGCCACCUUUGUUUCUGGAAGUAUAACCACGUCCUUGCCCAGAGUCACUUCUGAUUCCAACAGAGGAUUGAGCAUCA
B2: chr10:33190432:33190433:-_ENSG00000150093_ENST00000302278|hu_mus|hu_hu_hu_mus_True|78_88 (ssRNA)
RNA: GGGAGUUCUACAGUCCGACGAUCUACAUUUUCCAAACCUGCAUGUGAGUAAAACCAUGGCAAUAUUGCCCCAAAACUACCCUACUGUGACUAAGAUGCUGCUGCUGUGAGCUUGGUGUUGCAAAAUCCGCCUGAGUAGGAUUCCAACAGAGGAUUGAGCAUCA
B3: chr17:65740002:65740003:+_ENSG00000130935_ENST00000581375|hu_hu|hu_hu_hu_mus_False|1_1 (ssRNA)
RNA: GGGAGUUCUACAGUCCGACGAUCAACAAAUCUUUCUUCCCUGGACGAACAGGAAGAUUCAUAUUAAAAAAAAUAUAUAUCCAUCAAGUUAGGUGUGGUGGCCACACCUUUACUCCCAGCACUUUGGGAGGUGGAUCCUCUAUUCAACAGAGGAUUGAGCAUCA
B4: chr10:112654219:112654220:+_ENSG00000150593_ENST00000280154|hu_hu|motif|central (ssRNA)
RNA: GGGAGUUCUACAGUCCGACGAUCCCAAAGGGACUUUAAUAAAUCCAAAAUCAUCUUAAAUGUACUUUCUCCAGUUGACUCGGAAACCAUUAUAAUAGCUUCAUAUACAAGCUCAUGGUGAAAAUGAGGUACUUCCAGUUCCUUCAACAGAGGAUUGAGCAUCA
B5: chr4:13604834:13604835:-_ENSG00000038219_ENST00000040738|hu_mus|FALSE|FALSE (ssRNA)
RNA: GGGAGUUCUACAGUCCGACGAUCCCUAGAGAGUGCUUUCCGACUCACUUCAGAGUCUACACUUACUUCCUGGGCUCCUCGCUGAAUUGGCUCUCUUUCCCUAGGAGCUGCUUUUGAUGGGUUACCUUGGCUAUGUACUUUCUUCAACAGAGGAUUGAGCAUCA
B6: chr15:37385894:37385895:-_ENSG00000134138_ENST00000382766|hu_hu|FALSE|FALSE (ssRNA)
RNA: GGGAGUUCUACAGUCCGACGAUCGCUGCCGUCUCUUUCAUCAAUGACGAGGUCGAUGGGCAUUUUCCCCUUCAAACAGCUAAUGUAUCGGUGGCAGAAGUUAUCGCACAGUUCGUGGACCUUUUCUAACUCCAAAAGAUGAAACAACAGAGGAUUGAGCAUCA
B7: 97535920_97536194_1999_3pUTR_ENSMUSG00000038437_ENSMUST00000044730|mouse|control|control (ssRNA)
RNA: GGGAGUUCUACAGUCCGACGAUCGUGUGGCUGCUCUCCGCUUGGGUGAGGAGGGGGUUAACAGUGCCCAUGGGGGUUCCAAAGAUGUGGGAUGAAGGGAGGCUGAAGGUUGAGCCAGCCAGAGAAAACACCUGAGUGGUGGAGCAACAGAGGAUUGAGCAUCA
B8: chr5:145543945:145543946:-_ENSG00000133706_ENST00000545646|hu_hu|hu_hu_hu_mus_True|18_68 (ssRNA)
RNA: GGGAGUUCUACAGUCCGACGAUCCUGAACGGCCAGUGGUGGGAAAUAAUCAAGCCAGUGCUCUGCUUCAGAAAAUUUCACUAUGUCGUCAUCAGAGAGCCCAAGGGAUUUCAUAAUGCCCCACUGGUACUUAGAAGAUCCUGCCAACAGAGGAUUGAGCAUCA
B9: chr5:145543945:145543946:-_ENSG00000133706_ENST00000545646|hu_hu|hu_hu_hu_mus_True|18_78 (ssRNA)
RNA: B8 RNA with G57A, C60U, U75C
B10: chr4:95690885:95690886:+_ENSMUSG00000028572_ENSMUST00000156910|mus_mus|mus_mus_mus_hu_False|68_88 (ssRNA)
RNA: GGGAGUUCUACAGUCCGACGAUCUUUAGAAAAUGUUAAAUACCAUGAGCAUGCUAAUUCAAAGGCUAGUCUUAUUUUACCAGAAGUCACAGGCAAGCAGACACUACAAGAAUAUAUGAAAAUGAAACUCAACAAUAUAACUGUCAACAGAGGAUUGAGCAUCA
B11: chr4:48850422:48850423:+_ENSG00000109180_ENST00000264312|hu_mus|motif|central (ssRNA)
RNA: GGGAGUUCUACAGUCCGACGAUCAGCGAAUAGAAGUUUAGGAAUUGAACCAUAUUUUGGAUGACUUGACAGGAUUCCUUUACGGAUUAAUCCUUGAGUAAUCAGCAUACUUGUGGCAGCCAACGGCACAGAUCUGAACCAGAACAACAGAGGAUUGAGCAUCA
B12: chr7:141450121:141450122:+_ENSG00000106028_ENST00000265304|hu_hu|motif|central (ssRNA)
RNA: GGGAGUUCUACAGUCCGACGAUCUCAUCCUUUCUACUCCUUCUCUUUCGUCUGGUCACUCAGAAAUAUAAUAUUAUCAGCGGUGAUUGUUGUUGCUUGUCGCCUCACAUUAUUUUUAUCCAUGUAUUCACCAUAGUCUAUUUUCAACAGAGGAUUGAGCAUCA
B13: chr2:202488911:202488912:-_ENSG00000155755_ENST00000286196|hu_mus|hu_hu_hu_mus_False|68_88 (ssRNA)
RNA: GGGAGUUCUACAGUCCGACGAUCAUUGAAACAUUUUUCAUAAUCUCAGAGAUGUUUUCAGCAUUAUUAAUCAAAAACUCAAUUGUAAAUACAUGUAUCUUAUAAAAAUACACUUAAAAACACGAGUGGGGAGCGCAGGCGCCACAACAGAGGAUUGAGCAUCA
B14: chr2:64323713:64323714:-_ENSG00000197329_ENST00000358912|hu_mus|motif|central (ssRNA)
RNA: GGGAGUUCUACAGUCCGACGAUCGCUUUGUACUGACUGCGUGUCGGAAUUACUCUGACUUCCAGGAACGGUGUCAGUUACGGCAAAAUCAAUAGGACUUUCAGUUGACCGACCAAUCUGAAACAUAUCAGUGUUGCUGUCAUGCAACAGAGGAUUGAGCAUCA
B15: chr11:86503612:86503613:+_ENSMUSG00000072582_ENSMUST00000108022|mus_mus|motif|central (ssRNA)
RNA: GGGAGUUCUACAGUCCGACGAUCUUACUGACAGGCUCCAUAGUCUUCGGACAGAAUCUCCAUCAAGCAAAAGCUUAUCGGGUAAAGUUUUAGGUGGCCAGUAACUUCAUCAAUUAGUUCUACUGGUCCUGGCCCAAUUCCCAGCAACAGAGGAUUGAGCAUCA
B16: chr13:31722580:31722581:-_ENSG00000120694_ENST00000320027|hu_hu|FALSE|FALSE (ssRNA)
RNA: GGGAGUUCUACAGUCCGACGAUCUGAAUCAUGGUUCCAGAUCAGAGAUAUUGGAAAAGGAACUGCAUCUGUGACGGAAAAUUCUCUAACUUUAAAUGCCGGGGAAAGUAUUGCACACUGUAAUGCACAUCCUCUGGCUACUGCCAACAGAGGAUUGAGCAUCA
B17: chr1:241675328:241675329:-_ENSG00000091483_ENST00000366560|hu_mus|motif|central (ssRNA)
RNA: GGGAGUUCUACAGUCCGACGAUCGCUUUUGUUAACAUGAUCAUUGGGGUGCACAGGCUUCUUGCUGCCAAGUUCACCUCCGGACAUUUCAAUUGCUCUGUUGCUAAUGACUUCAUUUACAUUCAUGUUUGUCUGGGUUCCUGACAACAGAGGAUUGAGCAUCA
B18: chr3:158399885:158399886:+_ENSG00000168827_ENST00000264263|hu_hu|FALSE|FALSE (ssRNA)
RNA: GGGAGUUCUACAGUCCGACGAUCUUCAUCUGAAAAUUCCAAUUUAGUGUAGUCCUCUGGGUCCAGAGGCUCCAGGACACCUAUUACUUUUCCAUACUGGCCUGCACCACCUGAUUGUUUUUUAUGUGUAAAGUCAAACGGGACCAACAGAGGAUUGAGCAUCA
B19: chr17:3197573:3197574:+_ENSMUSG00000046201_ENSMUST00000076734|mus_hu|FALSE|FALSE (ssRNA)
RNA: GGGAGUUCUACAGUCCGACGAUCCCUCACAAGAUUCUCUCUUAUAUCUACAGGAGGUCUUCCAAAAUGAUCCCUACCAUCUAGUGGAGGCCGUCCAGGACCUUCUCUUGGAUCUAUAGGCCGCCCAACCACAUCUCUAACAUCCAACAGAGGAUUGAGCAUCA
B20: chr1:55207850:55207851:+_ENSMUSG00000025979_ENSMUST00000162364|mus_hu|FALSE|FALSE (ssRNA)
RNA: GGGAGUUCUACAGUCCGACGAUCCCGAUGAUGAAAAUAAGCAUGUGAAAAUAUUCUGUAAAUCCUACGGCAUACUGAUCCUAGUUUCGCUACAGAUGAUUCCUUUAUGCUAACCCUGCUGGGAAAAUAUUUAUUGCUAUUCAGCAACAGAGGAUUGAGCAUCA
B21: chr7:44244176:44244177:+_ENSG00000106636_ENST00000223369|hu_mus|hu_hu_hu_mus_False|98_98 (ssRNA)
RNA: GGGAGUUCUACAGUCCGACGAUCACUGUCGCUCCGGACGUAGACGUGGCAAAGAUACUCUUGUUCUUUGACAGAAGCUCUGCUGCCUUUCCCCGAGCGUUCCACAAUCAGUUGACUUGUAAAGGUCAUGAAUUCCUGCACACUCAACAGAGGAUUGAGCAUCA
B22: chr7:106632155:106632156:-_ENSMUSG00000030744_ENSMUST00000032998|mus_mus|FALSE|FALSE (ssRNA)
RNA: GGGAGUUCUACAGUCCGACGAUCAACUUCCUCUUCUUGGAAAUCUGCACCGCCAUCUUGCAGCCGCGCGCCGCUGAAAGGAAAGGAAGUGGCUCGCGGGCGGAAGUAGGUAUAUAGGGCGGGAGCAAUGACGCCGCGCAGCGCCAACAGAGGAUUGAGCAUCA

target: T1, UNK ZnF1-3; test: nsRBNS (natural sequence RNA bind-n-seq); RBNS binding buffer (assumed for nsRBNS): 25 mM Tris pH 7.5, 150 mM KCl, 3 mM MgCl2, 0.01% Triton X-100, 500 ug/ml BSA, 20 U/ml SUPERase-In, 4 C; UNK is unkempt and MSI1 is Musashi-1; names of the RNAs are library labels; protein concentration not given here; high values mean tight binding

| Binder | binding signal [enrichment R] |
| --- | --- |
| B1 | 0.501 |
| B2 | 0.997 |
| B3 | 1.12 |
| B4 | 1.12 |
| B5 | 0.399 |
| B6 | 0.858 |
| B7 | 2.47 |
| B8 | 1.26 |
| B9 | 1.3 |
| B10 | 1.64 |
| B11 | 1.24 |
| B12 | 0.467 |
| B13 | 0.769 |
| B14 | 0.461 |
| B15 | 1.8 |
| B16 | 1.23 |
| B17 | 0.283 |
| B18 | 0.928 |
| B19 | 0.871 |
| B20 | 1.13 |
| B21 | 0.724 |
| B22 | 0.95 |
